Source: PubChem BioAssay (NCATS)
Inconclusive means that the source gave no clear call. Such entries were picked first, then a sample of the others. For part of these data: No potency is given beside an inconclusive call; the fits are too rough. The source made the active and inactive calls. The call rests on the fitted dose curve; in most records, active means well fitted curve in the direction sought with a large enough effect; inconclusive means small, poorly fitted or top-dose-only effect, or another doubt; inactive means no such curve, though single readings can be large; an effect the other way counts as inactive or inconclusive.

How the values were obtained:
[1] = qHTS of pediatric cancer cell lines to identify multiple opportunities for drug repurposing: Primary screen for Saos-2 cells (AID 1347097); further: nearly all actives have a fitted effect of over 40% in size; further: potency means the concentration at half of the fitted maximal effect; on activity change, negative = cytotoxic: on the % scale 0 is the no-effect control and ±100 the full control effect
How it was run: (§1)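 ATP-based luminescence (CellTiter-Glo) quantifies viability after a 48-hour exposure. Compounds are dosed across 8 or 11 final concentrations; DMSO and 2.3 µM bortezomib serve as controls.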

[2] = qHTS of pediatric cancer cell lines to identify multiple opportunities for drug repurposing: Primary screen for OHS-50 cells (AID 1347103); further: nearly all actives have a fitted effect of over 40% in size; further: potency means the concentration at half of the fitted maximal effect;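 on activity change, negative = cytotoxic: plate controls were DMSO neutral control for no effect and bortezomib positive control for full effect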
How it was run: (§2)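 Cells (500-1,000/well) rested 5 h, then received compounds for 48 h; metabolically active cells were measured by CellTiter-Glo luminescence. Final concentrations spanned up to 46 µM (MIPE, 11-point) or 0.59 nM-46 µM (NPC, 8-point) in primary screens, 11-point in follow-ups.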

[3] = qHTS of pediatric cancer cell lines to identify multiple opportunities for drug repurposing: Primary screen for Rh18 cells (AID 1347102); conditions: Rh18 rhabdomyosarcoma viability, CellTiter-Glo luminescence, 48 h; activity change, negative = cytotoxic: at 46 µM (top of the series); further: nearly all actives have a fitted effect of over 65% in size; further: potency means the concentration at half of the fitted maximal effect; on activity change, negative = cytotoxic: on the % scale 0 is the no-effect control and ±100 the full control effect
How it was run: as §2

[4] = qHTS of pediatric cancer cell lines to identify multiple opportunities for drug repurposing: Primary screen for RD cells (AID 1347104); further: nearly all actives have a fitted effect of over 55% in size; further: potency means the concentration at half of the fitted maximal effect;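 on activity change, negative = cytotoxic: plate controls were DMSO for no effect and bortezomib for full effect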
How it was run: as §1

[5] = qHTS of pediatric cancer cell lines to identify multiple opportunities for drug repurposing: Primary screen for MG 63 (6-TG R) cells (AID 1347105); conditions: MG 63 (6-TG R) viability, CellTiter-Glo, 48 h; activity change, negative = cytotoxic: at 46 µM (top of the series); further: nearly all actives have a fitted effect of over 50% in size; further: potency means the concentration at half of the fitted maximal effect; on activity change, negative = cytotoxic: on the % scale 0 is the no-effect control and ±100 the full control effect
How it was run: as §1

[6] = qHTS of pediatric cancer cell lines to identify multiple opportunities for drug repurposing: Primary screen for control Hh wild type fibroblast cells (AID 1347106); further: nearly all actives have a fitted effect of over 55% in size; further: potency means the concentration at half of the fitted maximal effect;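 on activity change, negative = cytotoxic: on the % scale 0 is the no-effect control and ±100 the full control effect; a drop in luminescence marks cytotoxicity and a rise apparent proliferation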
How it was run: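 Cells (500-1,000/well) in growth media were settled 5 h at 37 degrees C, then given compounds for 48 h. Viability was read as CellTiter-Glo luminescence. Primary runs used MIPE at 11 points (0.78 nM-46 µM) and NPC at 8 points (0.59 nM-46 µM); follow-ups used 11 points.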

[7] = qHTS of pediatric cancer cell lines to identify multiple opportunities for drug repurposing: Primary screen for SK-N-SH cells (AID 1347098); conditions: SK-N-SH viability, CellTiter-Glo luminescence, 48 h; activity change, negative = cytotoxic: at 57 µM (top of the series);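 further: DMSO served as neutral control and bortezomib at 2.3 µM as positive control; on the % scale 0 is the no-effect control and ±100 the full control effect; nearly all actives have a fitted effect of over 65% in size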
How it was run: as §2
Tags describe the fitted curve by direction and shape.

**Q.** With `CCOc1ccc(NC(=O)CC(C)O)cc1` (centres undefined) as the molecule, how does the Potency [1] read?
**A.** inconclusive [cytotoxic, full curve, poor fit]

**Q.** And the Potency [2]?
**A.** inactive

**Q.** For `Cc1cc(Cl)ccc1OCCCC(=O)NO`, which Potency [1] is on record?
**A.** active: 11.8 µM

**Q.** And the Potency [3]?
**A.** inconclusive [cytotoxic, single point]

**Q.** And the Potency [2]?
**A.** inconclusive [cytotoxic, partial curve]

**Q.** What about the Potency [4] of the same molecule?
**A.** active: 18.7 µM

**Q.** What about the Potency [5] of the same molecule?
**A.** active: 7.43 µM

**Q.** And the Potency [6]?
**A.** inconclusive [cytotoxic, full curve]

**Q.** With `CCCC(=O)O[C@]1(C(=O)CO)CC[C@H]2[C@@H]3CCC4=CC(=O)CC[C@]4(C)[C@H]3[C@@H](O)C[C@@]21C` as the molecule, how does the Potency [1] read?
**A.** inactive

**Q.** What about the Potency [2] of the same molecule?
**A.** inconclusive [cytotoxic, partial curve, poor fit]

**Q.** What about the Potency [6] of the same molecule?
**A.** inactive

**Q.** For `NC(CS)C(=O)O` (centres undefined), which Potency [1] is on record?
**A.** inactive

**Q.** What about the Potency [2] of the same molecule?
**A.** inactive

**Q.** Which results are given for `CC(=O)Oc1ccc(C2(c3ccc(OC(C)=O)cc3)C(=O)Nc3ccccc32)cc1`?
**A.** Potency [1]: inactive; Potency [3]: inactive; Potency [4]: inactive

**Q.** Which Potency [7] does the source give for `CN1CCN(C(=O)C2CCCCC2)CC1` here?
**A.** inactive

**Q.** For `NNCCc1ccccc1`, which Potency [1] is on record?
**A.** inconclusive [cytotoxic, partial curve]

**Q.** What about the Potency [3] of the same molecule?
**A.** inconclusive [cytotoxic, partial curve]

**Q.** What about the Potency [2] of the same molecule?
**A.** inconclusive [cytotoxic, full curve, poor fit]

**Q.** What about the Potency [4] of the same molecule?
**A.** inconclusive [cytotoxic, partial curve]

**Q.** Which results are given for `Cc1ccccc1C(=O)Nc1ccc(C(=O)N2CCCC(O)c3cc(Cl)ccc32)c(C)c1` (centres undefined)?
**A.** Potency [1]: inconclusive [cytotoxic, single point]; Potency [4]: inactive; activity change, negative = cytotoxic [5]: inconclusive: -45.4% [cytotoxic]
